PubChem BioAssay AID2546 (National Center for Advancing Translational Sciences (NCATS), 2010)
The campaign covered roughly 310,000 compounds. About 11,000 (3.5%) were called active. Inconclusive means that the source gave no clear call. Such entries were picked first, then a sample of the others. The call rests on the fitted dose curve; in most records, active means well fitted inhibition curve with a large enough effect; inconclusive means small, poorly fitted or top-dose-only effect, or effect the other way; inactive means flat fitted curve, though single readings scatter. No potency is given beside an inconclusive call; the fits are too rough.

Experiment: VP16 counterscreen qHTS for inhibitors of ROR gamma transcriptional activity;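 further: Gal4-VP16 expression switched on by copper sulfate through the metallothionein promoter; nearly all actives have a fitted effect of over 50% in size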
Settings: Drosophila S2 Gal4-VP16 UAS-luciferase, luminescence, 20 h; activity, negative = inhibition: at 53.6 µM (top of the series)
On the % scale 0 is the no-effect control and ±100 the full control effect; potency means the concentration at half of the fitted maximal effect; tags describe the fitted curve by direction and shape.

| Structure (SMILES) | Potency | activity, negative = inhibition |
| --- | --- | --- |
| COc1ccc(C(=O)CSc2nc(-c3ccccn3)nc(C)c2Cl)cc1 | inconclusive [inhibitor, single point] |  |
| Cc1ccc(Cl)cc1NS(=O)(=O)Cc1ccccc1 |  | inactive: -8.01% |
| S=C(c1ccc(-c2ccc(Cl)cc2Cl)o1)N1CCCCC1 | inconclusive [inhibitor, single point] |  |
| Clc1cccc(Cl)c1Cn1cnc(=NCc2ccco2)c2[nH]cnc21 | inconclusive [inhibitor, single point] |  |
| Fc1ccc(C2c3cccn3CCN2C(=S)Nc2cccc(Br)c2)cc1 (stereo not drawn) | inconclusive [inhibitor, single point] |  |
| CCOC(=O)N1CCN(C(=O)CSc2cc(C)nc3c(-c4ccccc4OC)c(C)nn23)CC1 | active: 12.6 µM |  |
| Cc1ccc(NCc2nnc(SCC(=O)Nc3nnc(C)s3)n2C)cc1 |  | inactive: -4.65% |
| CC(C1OC(C)(C)C(O)C1O)C1CC[C@@]2(C)C3=CCC4C(C)(C)C(=O)CC[C@]4(C)C3CC[C@@]12C (stereo partly drawn) |  | inactive: -10.5% |
| CCn1c(=S)[nH]c2cc(Cl)ccc21 | active: 25.1 µM |  |
| Cc1ccc(/C=N/n2c(-c3ccco3)n[nH]c2=S)cc1 | inconclusive [inhibitor, single point] |  |
| COCCNC(=O)c1ccccc1N(Cc1ccccc1)S(=O)(=O)c1ccc(C)cc1 |  | inactive: -0.0701% |
| O=C(Cn1cc([N+](=O)[O-])cn1)N1CCN(Cc2ccc3c(c2)OCO3)CC1 | inconclusive [inhibitor, single point] |  |
| Cc1cc(C)nc(/N=C(\N)Nc2ccc(CC(=O)OC(C)C)cc2)n1 | inconclusive [inhibitor, partial curve] |  |
| O=C(NC(=S)NC1CCN(Cc2ccccc2)CC1)c1ccc(F)cc1 | active: 11.2 µM |  |
| CCOCCCNC(=O)c1cc(-c2ccc(Br)s2)nc2ccccc12 |  | inactive: 8.58% |
| COC(=O)c1ccccc1NC(=O)CN(c1c(C)cccc1C)S(C)(=O)=O | inconclusive [activator, single point] |  |
| Cc1cc(Br)ccc1SCC(=O)OC/C(O)=C(\C#N)c1nc2ccccc2[nH]1 | inconclusive [inhibitor, single point] |  |
| COc1ccc(CCN2CCCC(CN(C)C(=O)c3ccoc3C)C2)cc1 (stereo not drawn) |  | inactive: -8.86% |
| CC(C)c1onc(C(=O)NCc2cccs2)c1[N+](=O)[O-] | inconclusive [activator, single point] |  |

| Structure (SMILES) | Potency | activity, negative = inhibition |
| --- | --- | --- |
| Oc1ccc(Cl)cc1CNc1ccc(Br)cn1 | inconclusive [inhibitor, single point] |  |
| O=C(O)c1sccc1Oc1ccc(F)cc1[N+](=O)[O-] |  | inactive: 6.7% |
| Cc1cccc2sc(N(CCCN(C)C)C(=O)c3ccc(Cl)s3)nc12 | inconclusive [inhibitor, partial curve] |  |
| COc1ccccc1NC(=S)N=Nc1c(O)[nH]c2ccc(Br)cc12 | active: 5.62 µM |  |
| Cc1ccc(-c2cc(C(=O)N/N=C/c3c(C)nn(-c4ccccc4)c3C)n[nH]2)s1 | inconclusive [inhibitor, single point] |  |
| COc1ccc(-c2nc(-c3ccncc3)no2)c(OC)c1 | inconclusive [inhibitor, partial curve, poor fit] |  |
| O=C(/C(=N\Nc1ccc([N+](=O)[O-])cc1)Sc1nnnn1-c1ccccc1)c1ccccc1 | inconclusive [inhibitor, single point] |  |
| S=c1[nH]nc(COc2ccccc2)n1/N=C/C=C/c1ccccc1 | active: 4.47 µM |  |
| CCC(=O)N1CCCc2cc(S(=O)(=O)N3CCN(c4ccccn4)CC3)ccc21 |  | inactive: 6.13% |
| C=CCn1c(SCC(=O)Nc2ncc(Cc3ccc(C)c(Cl)c3)s2)nnc1-c1ccncc1 | inconclusive [activator, single point] |  |
| O=C(Nc1nc2ccccc2[nH]1)c1ccccc1 | active: 7.94 µM |  |
| Cc1ccc(-n2c(C)cc(/C=N/NC(=O)CC3(C)OCCO3)c2C)c(C)c1 |  | inactive: 6.03% |
| CCCOc1ccc(-c2c(C(=O)N/N=C(\C)c3ccncc3)nnn2-c2nonc2N)cc1 |  | inactive: -4.88% |
| CC1CCN(c2nc3ccccn3c(=O)c2C=O)CC1 |  | inactive: -13.3% |
| NS(=O)(=O)c1cc2c(cc1Cl)NC(c1ccccc1OCC(=O)O)NS2(=O)=O (stereo not drawn) |  | inactive: -6.15% |
| CCOc1ccc(C(=O)NC(=S)N(Cc2ccccc2)Cc2ccccc2)cc1 | active: 0.794 µM |  |
| Cc1cc(C(F)(F)F)nn1CC(=O)NNC(=S)Nc1ccc(F)cc1 |  | inactive: 9.77% |
| Oc1cc(OCc2ccccc2)ccc1-c1[nH]ncc1-c1ccccc1 | inconclusive [inhibitor, single point] |  |
| CC(=O)Nc1ccc(NC(=O)c2nc(S(=O)(=O)Cc3cccc(C)c3)ncc2Cl)cc1 | active: 5.01 µM |  |
